In all, about 33,000 sequences were measured (“E-score (-0.5 to 0.5)”: median about -0.01, highest 2% from about 0.26 on). The list shows a part of the results.
Molecular target: Ste12 (UniProt P13574)
Experiment: PBM E-score (8-mer binding enrichment) (E-score (-0.5 to 0.5)); higher = stronger / more preferred TF binding; most listed sequences are background and not binding sites
Settings: protein concentration: 200 nM; construct: GST-DNA-binding domain
Summary of the method: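 Detection of bound protein used fluorescent anti-GST, with scans normalised by masliner. The proteins were GST-tagged yeast transcription factors applied at about 100-200 nM to universal all-10-mer Agilent arrays made double-stranded by primer extension. Each ungapped eight-base word, pooled with its reverse complement, was scored with an E-score from the Universal PBM Analysis Suite.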

Sequence	PBM E-score
GAACTAGC	0.00172
AAACATGC	0.231
AGTAACGC	0.00391
ATTAGCTG	0.0697
AAGGCCTG	-0.187
AGCGGGGC	-0.146
AGCGAATG	-0.0452
ACCATACG	-0.0611
GGTTTACA	-0.0303
CGGGCGCA	-0.0109
GATGAAAC	0.494
AAAGTTTA	0.199
TAATTACA	0.0868
CAGAAACG	0.052
GCGTCACC	-0.244
CTGAAATA	0.202
AACCTTCC	-0.0876
ATCGAAAA	0.125
AAGGAGGT	-0.112
GGGACCCC	-0.216
ACCACACC	0.00862
CTGCTAAC	-0.195
ACCCGTGA	-0.0359
CACCTTCA	0.0147
AGCCGCTG	-0.116

Sequence	PBM E-score
AGATCCCT	-0.128
AACTCTAG	-0.0059
AGGTCGGC	-0.099
CAAGTACC	-0.15
ACGGAGTG	-0.043
AGCGCCAT	-0.173
AGCCGCTC	-0.168
ATATGCGG	0.117
CTCCTCGC	-0.242
TGCGAACA	-0.0424
GGGGAAGA	-0.106
ATCGCTAG	0.0451
CACAGGGG	-0.0551
CACTGTGC	-0.0506
AATGACGG	0.103
AAAATGAG	0.124
CTGGTAAC	0.0886
CCTGTCGA	-0.122
AGTTGCCA	-0.236
ACCATCCC	-0.00197
CTTCCCTA	-0.176
ACTCCAAA	0.104
CCCGTACC	-0.0945
ACTAGGAT	-0.0135
AGCTAGGA	-0.0909

Sequence	PBM E-score
AACAGACT	0.167
GCACCCAC	0.0867
AATCTGGG	-0.0915
ATAAGCGG	-0.114
AAGGGGAA	-0.0456
CAGTGGTA	-0.208
CCCCGAAC	-0.0598
ACAGGGGC	0.00449
AAGACAGT	-0.00908
AGTAGAAG	-0.139
ACTCGAGC	-0.161
TAGGAGAA	-0.0389
AAATCGGT	-0.0246
AAACTCGT	0.136
CCCTTCAA	0.0236
CCCCTGAC	0.0225
AGTATTTC	0.205
GATTCTCC	-0.148
TATGTGGA	0.0901
ATGACCGG	-0.147
CACTCAGA	0.129
GTGGATTA	0.0079
AGCAGGAC	-0.0293
GTGGCCGA	-0.136
AAACTGAG	-0.16

Sequence	PBM E-score
AACGATCA	-0.144
CAGTTAGC	-0.218
ATCGTGAC	0.0287
CAATTACC	-0.00263
ATTCTCGA	0.17
GCTTAGTA	-0.102
CTGCTACC	-0.0316
CCATAGTA	0.0358
AGTGAACG	-0.109
ACTCCTTG	-0.049
ACGCTACC	-0.279
AAATACGA	0.00396
GCCAACCC	-0.0609
GAGGTTAA	0.0122
ATTTTATC	0.195
AGAGGCCC	-0.166
AGCGATTC	-0.0772
CGGTCGTA	-0.0858
GCAAAAGC	-0.0339
GGGGTCCA	-0.154
ACGAGGCA	-0.118
CAAGGTAG	-0.0188
CACGAGGC	-0.096
CGGCAAAA	0.157
GCCATCGA	-0.141

Sequence	PBM E-score
CAGGAGGC	-0.157
CGCCGGAG	0.0534
AACTAAAC	0.144
CTTTCGCA	0.00052
ATCTAAAT	0.172
CTTCGGTC	-0.0601
GAATGATA	0.309
AAAACTCA	0.219
ACGGCACT	-0.0846
CATCGACC	0.122
CGTGTGAG	0.0368
TATGAAGA	0.0389
GCATTTTA	0.165
AGATGTGA	0.262
AAGCAATT	0.145
ACGCTGAC	-0.194
GTACCAAC	-0.122
ATCGAAAC	0.324
GCCTAAAA	-0.0428
CCTGCGCA	-0.0798
CAGGCCCA	-0.103
CCAGTTCG	0.0342
AGGAATCC	0.00237
CTTACGCC	0.0289
ATCGGGTA	-0.0385

Sequence	PBM E-score
TACATCGA	0.065
CAGTGACG	0.111
GCTGTTAA	0.11
ACGCGTTG	-0.158
ACAGCTAT	-0.279
CCGTCCTA	-0.138
AGTGTTCG	-0.0556
AATAACGA	-0.044
CGATACCC	-0.07
CATACATA	0.124
AATCGAGT	0.0323
AGACAGGC	-0.0382
AAGGTCCT	-0.0872
ATACACGA	-0.0503
CGACCACC	-0.0645
GATGTTTA	0.191
ATAATAGA	0.164
CTACCACC	-0.102
GTGACCCA	-0.0572
CGTGCACG	0.126
ATCCGCGG	-0.0129
CCACCACC	-0.0881
AATTGAAT	0.131
ACGGCCAA	-0.0542
AGCAACTC	-0.0843

Sequence	PBM E-score
CGTCTCGC	-0.207
AATCTGAA	0.207
CAAGCAGG	-0.0299
CACAGACC	-0.0751
AATCTAGC	-0.102
GCATCAGC	0.034
TAGCATCA	0.0202
TCCCAAAA	0.172
CTCCGTTC	-0.0781
ACAGATCA	-0.00243
GGCGTGGA	-0.0873
CACTCTCA	-0.0633
GAAATTAA	0.294
CACATAGA	-0.0651
ATTTATCC	0.181
TAAAATTA	0.258
AGAACCCG	-0.0568
CCTTACGA	0.0728
ATCTCTAA	0.0731
TCATAACA	0.1
CAGTTGGA	-0.0986
GACTATCA	-0.0567
ATCAAAAC	0.197
CGTCGATA	-0.0294
CTGATTCA	0.125

Sequence	PBM E-score
TCTCACAA	0.162
AAAGGCTC	-0.025
ACCTCTTA	0.135
AATATGCA	-0.0314
AATGAGCT	0.0428
ATCGCAAC	0.0102
GATGTAGC	-0.152
GGAAGTCC	-0.116
ATCAGACC	0.102
CTGGACCC	-0.195
ACGATCTA	-0.0577
ACTCAAGC	-0.137
GATCGCAC	-0.0476
CGGTAAAG	0.138
GACAGCAA	0.0122
ACTGGTCG	-0.0963
ACGAGGGC	0.0351
GCCTCATA	0.113
AGTAATCC	-0.0677
AGGGCGAG	-0.143
ATGTTAAA	0.217
CATTGCCC	-0.00338
ACGGATGG	0.031
GAAGAGTC	-0.156
CCCTGATA	-0.105

Sequence	PBM E-score
GGACAGAA	0.136
ATGAGCGC	-0.0454
AAAGATTA	0.129
CGCTCTTC	0.00173
GATTCCGA	0.152
AAACTAGT	0.123
GGACGATA	-0.13
CGTCGCGC	0.00057
ATACGAGG	-0.0353
AGCCGCGA	0.0422
CAGACTCA	-0.224
GTACACCA	-0.0485
ACTCGCCG	0.198
CATCCCGC	0.0907
ACACGAAG	0.0728
AGGAAAGG	-0.348
ACCGTGAG	-0.132
CTAGATCA	-0.22
TTAAGGAA	0.05
GATGCAAC	-0.0126
CGTTCAAC	-0.0534
CTTGCTGC	-0.0531
CGCAGTAC	0.0244
GACGGGCA	-0.0533
AACTCGAA	0.0844

Sequence	PBM E-score
AGCTCATC	-0.145
ACGTTATG	0.0951
CATGGCTA	-0.02
GCTTATTA	0.0471
TCGCCTAA	0.017
CCTAACAG	0.0231
ATGGCAAG	-0.0558
AGTATCAG	0.00443
AAGAGCAT	-0.0195
ACATGGTG	0.015
ACGGGACC	-0.233
CTCGAGGA	-0.0933
TAACGGAA	0.148
CACTTGGG	-0.173
ACCCGGGT	0.0381
AGCGCTTC	-0.00812
CAAAATGG	0.189
CCCGAACG	-0.0742
CTAAAAGC	-0.0594
CCCCCTTC	-0.352
CAACATTC	-0.154
TGCCACAA	0.0743
CGTTACGC	0.0467
CTTTGAGA	0.114
ATTCCGCA	0.0429

Sequence	PBM E-score
AACCCATG	-0.0393
AAATGTTC	-0.0179
GACCCGCC	0.121
ATCACATG	-0.0707
ACAACGGA	-0.0274
ATAAGTGA	0.112
AGCTGCCC	0.0132
AGCGTAGA	-0.0606
AATCAGGA	-0.0499
GCCAATAC	-0.0532
ACCACGAC	-0.0312
GCTTGCGA	0.0839
ATTCATTG	-0.026
AAGCTCAC	-0.256
AGATGGCT	-0.0505
CCCCTCGG	-0.0763
CTACATAG	0.121
CTGATCCC	-0.101
AGAGACTA	-0.105
CACAGCTC	-0.189
CAACTTCC	0.0895
ACCTAGTG	-0.0568
AAATTCTG	0.128
AAGATTGG	0.0214
GGCACGAC	-0.113

Sequence	PBM E-score
CCGATCCC	-0.219
CGTCGTAA	-0.00425
CACAGATC	0.026
AATGGGTC	0.0131
TCTTGCCA	-0.122
TCAGGGAA	-0.032
GCGCCATA	-0.0446
AGTTTGCA	0.0395
AAATGCAG	-0.0265
CATGTTTA	0.199
ACCATAAT	0.114
CCCAGGCG	0.0763
CTCTTCTC	-0.161
CATTCACA	0.197
ACTTGCTC	-0.136
ACCGACGT	-0.0609
ATCTACTG	0.0446
GCACGTTA	0.0558
CCGGCAAA	0.116
AGCACAAT	-0.16
ACACCATC	-0.0878
GTAATAAA	0.198
GTCAGTTA	-0.0112
CATGTGGG	-0.0199
AACGGTTC	-0.0882

Sequence	PBM E-score
CACAGTGA	0.0133
ACCTGTTC	-0.0664
AAAGACAA	0.00136
AGAATGCC	-0.151
GATTTGTA	0.149
GTTGTTGA	0.0783
CGCTTTAG	0.0782
TAGAAATA	0.152
AGTGAACA	-0.0685
TGGTCGAA	-0.294
CAAACCCG	0.0369
AGTTAGCC	-0.167
GATCTATA	0.122
CTGGCCAC	-0.0729
ACCTGTCC	-0.197
ACGGCCGA	-0.00423
CAGCGTCG	-0.0332
ATGTAAGG	-0.0204
CCAGAGCC	-0.0846
CGCTTCTC	0.0454
GACTAATA	0.021
GGAACTGA	-0.0249
ACGGATAG	0.0338
CCTATTAG	-0.125
CCCCATAA	0.0738

Sequence	PBM E-score
CCATATGC	-0.0488
CAGCATCG	-0.0328
AGGGATTC	-0.111
CGCTGGCA	0.00792
CCACTATA	-0.0328
GTTTCCGA	0.238
GCCGGAGC	0.0404
CCCATTCG	0.0016
GCAGGACC	-0.265
GAAATGAC	0.189
AATTTTGC	0.0426
AAGCCCTG	-0.194
AATATGCG	0.0236
ATATTAAT	0.298
ATCTAGCA	-0.0817
GGCGCTTA	0.0142
ATTGCACC	0.0905
CCTTGATA	0.00987
TAAATTAA	0.155
